Assay results published in the RNAGym collection of RNA variant scans (doi:10.7554/elife.90254).
Read counts are not given, so values of variants with three or more changes are uncertain.

B1: LINE1-mini (parent)
chain: GGCAGAGCUCAACACAGCGUGGCAAAGUGGCUGUGGCUAGACUGCC

Variants of: B1
Assay: self-cleavage, relative activity (ratio to wild type); higher = more cleavage; in vitro, sequencing; the parent is a self-cleaving ribozyme

| Variant | self-cleavage |
| --- | --- |
| A14C G29U G44U | 0.03 |
| C13G U20A G21A G40A | 0.11 |
| G5A A14G U20A | 0.03 |
| G2U A11C C23U U34C | 0.01 |
| C13A G17C G36A G40C | 0.06 |
| C10G A11G C23G U43A | 0 |
| A24U U34G G40C | 0.01 |
| A4C C13G C18U | 0.06 |
| A11U G21C A25U G36A | 0.01 |
| U9C A11U C37U | 0.02 |
| G1A A4U U34C G40U | 0.12 |
| G5U G7A G17U G27U G44U | 0.18 |
| A24C A26C G44A | 0.07 |
| C3U U20A G36A C42A | 0.61 |
| G5U A24C A26G G33C G36U C45A | 0.01 |
| C23A U28G G40C | 0.12 |
| A4U A11C G30C | 0 |
| G7U C18U G19A G22A | 0.04 |
| A14U C18A G19A C23A | 0.13 |
| A16U A25C C31U G35A | 0.01 |
| A14U U20A G36C | 0.02 |

| Variant | self-cleavage |
| --- | --- |
| A4C A11U U38A C42A | 0.02 |
| A14C A16U U32G U34C G40A | 0.03 |
| C10A A41U C45U | 0.02 |
| G1C A4U G5A A24C C42U | 0.03 |
| U9C C18U C46G | 0.02 |
| C3G G21U A24G G36A C37A | 0.31 |
| C3A U9C A14G G27A | 0.06 |
| A6G C23A A24G | 0.04 |
| U20C G21A C23A | 0.06 |
| A12U C15A C45G | 0.19 |
| G2A C15U A41C C45G | 0.06 |
| G1A C10U G33U | 0.12 |
| C3A A11G C13A G17A U32C G44C | 0.03 |
| U9G C15A C23U | 0.05 |
| A4G A25U G27U | 0.24 |
| G21C U34C A39G | 0.09 |
| C10G C13A U28C | 0.02 |
| G1U G5U C18A C31G | 0.04 |
| C10U G19A A41U | 0.04 |
| G7C C8U G22A U28C | 0.02 |
| G7A U34A G36A G40U | 0.03 |

| Variant | self-cleavage |
| --- | --- |
| C10A A39G C45A | 0.01 |
| A6G G22U A39C | 0.02 |
| C15U G19C A26C | 0.84 |
| G7C A11C G17A G30A U34G C45A | 0.02 |
| A12U C18A C37A A41C | 0 |
| G27A G30A G44A | 0.33 |
| G7U A24C C31G C46U | 0.1 |
| C10U U34C A41C | 0.01 |
| G5A A6C C13A G29A | 0.07 |
| G7C U20A G35A | 0.07 |
| U9G A16G G21U | 0.16 |
| G7U U28C C37G A39G | 0.01 |
| G2U C3A C10G A14U U34G | 0.03 |
| G19U A26U G33A G40C | 0.01 |
| C8U A12U G29A G35C U43A | 0.27 |
| G2C C18G A25C | 0.06 |
| C3G A11U U20A | 0.03 |
| C3A G5U C8U | 0.14 |
| G19U G33A U38A C42G | 0.12 |
| A11U C15A A26C G27A U28G G30U | 0.01 |
| C23G A24U A26U U38A C42U | 0.34 |

| Variant | self-cleavage |
| --- | --- |
| C23U G40U C42A | 0.16 |
| G7C C15A A25C U34C A41C | 0.01 |
| C13G C23G G40C | 0 |
| A12U A24G C42A | 0.03 |
| U9C A16C U20G G22A G30A U34C U43A | 0 |
| A16G G21U U38A | 0.15 |
| C13A U20A C23A A39G | 0.06 |
| C15U A16G G40C | 0.01 |
| A26U U28C U32A A39G | 0.06 |
| C10G G21U G22A G27C G35A C46G | 0.02 |
| A16U U28A C46A | 1.77 |
| U28G C31U C37U A41U | 0.05 |
| A11U C13G U34G | 0.02 |
| G5U G30A G36A | 0.32 |
| A6G C10U A24U G33U G35C G40C | 0 |
| C10G A24G C31U U38G G44U | 0.01 |
| C10U G19C G30A C42A | 0.05 |
| G5U C10U A26G G29U G35U | 0.04 |
| G17U U20C G27U | 0.21 |
| C8G G21C C23G | 0.03 |
| C18G U20A A24U | 0.22 |
